What was measured:
[1] = for Liver microsome metabolic stability (% remaining) human: microsomes, 1 h
[2] = for Liver microsome metabolic stability (% remaining) rat: microsomes, 1 h
[3] = for Liver microsome metabolic stability (% remaining) mouse: microsomes, 1 h
ER α-glucosidases = settings: mouse, in vivo, ip, 75 mg/kg
[4] = human, rat, mouse, 1 h
rat ER α-glucosidase I = rat ER α-glucosidase I (Rattus norvegicus, UniProt O88941); test: biochemical

| Structure (SMILES) | Liver microsome metabolic stability (% remaining) human [1] [% remaining] | Liver microsome metabolic stability (% remaining) rat [2] [% remaining] | Liver microsome metabolic stability (% remaining) mouse [3] [% remaining] | Glc1Man4GlcNac1 glycan in sera compared to CM-10-18 (ratio Glc1Man4GlcNac1/Man4GlcNac1) (ER α-glucosidases) | hyper-glucosylated FOS (Glc1Man4GlcNac1) in sera (ER α-glucosidases) | drug remained in liver microsomes [4] | IC50 (rat ER α-glucosidase I) [nM] | metabolic stability in human liver microsomes (in words) [1] | metabolic stability in rat liver microsomes (in words) [2] | metabolic stability in mouse liver microsomes (in words) [3] |
| --- | --- | --- | --- | --- | --- | --- | --- | --- | --- | --- |
| CC(C)(C)NC(=O)N(CCCCCCN1C[C@H](O)[C@@H](O)[C@H](O)[C@H]1CO)C1CCCCC1 [IHVR19029, 3-(tert-butyl)-1-cyclohexyl-1-(6-((2R,3R,4R,5S)-3,4,5-trihydroxy-2-(hydroxymethyl)piperidin-1-yl)hexyl)urea] | 93 | 92 | 87 | over 2 times | observed | 79-93% | 480 ± 170 | – | – | – |
| OC[C@@H]1[C@@H](O)[C@H](O)[C@@H](O)CN1CCCCCCOc1cc(F)ccc1F [IHVR11029, (2R,3R,4R,5S)-1-(6-(2,5-difluorophenoxy)hexyl)-2-(hydroxymethyl)piperidine-3,4,5-triol] | 91 | 79 | 91 | – | – | 79-93% | – | – | – | – |
| CC(C)(C)C(=O)N(CCCCCCN1C[C@H](O)[C@@H](O)[C@H](O)[C@H]1CO)C1CCCCC1 [IHVR17028, N-cyclohexyl-N-(6-((2R,3R,4R,5S)-3,4,5-trihydroxy-2-(hydroxymethyl)piperidin-1-yl)hexyl)pivalamide] | 42 | 27 | 59 | – | – | – | – | relatively more stable | metabolically un-stable | relatively more stable |

From article PMC3663898 (Antiviral research, 2013)
